Where a name gives a salt, the structure may show the parent alone. Viability of KB3-1 and Nalm-6 cells after 48 h of drug alone (CellTiter-Glo), 11 doses over about 4.5 log units. % of DMSO wells, lower = more cell loss; AC50 from the fitted curve, lower = more potent. No active / inactive call. Nalm-6 was screened in two runs. AC50 is listed only for well-fitted inhibitory curves. KB3-1 is a HeLa-derived carcinoma line, Nalm-6 a B-cell precursor leukaemia line.
What was measured:
Nalm-6 [1] = experiment: log AC50 of viability decrease (48 h) (log10 M); higher = less potent
Description: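 Eleven-dose screen of the NCATS MIPE 3 library on cells without co-treatment; CellTiter-Glo after 48 h. AC50 from the curve fit; only inhibitory curves of the better fit classes are listed.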

Nalm-6 [2] = experiment: viability (% of DMSO control); higher = more viable cells
Description: (§1)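 Eleven-dose screen of the NCATS MIPE 3 library on cells without co-treatment; CellTiter-Glo after 48 h, as % of DMSO wells.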

KB3-1 = experiment: as above
Description: as §1

Structure (SMILES)	log AC50 of viability decrease (Nalm-6 [1]; run: 1)	log AC50 of viability decrease (Nalm-6 [1]; run: 2)	viability (Nalm-6 [2]; run: 1, 0.00078 µM) [%]	viability (Nalm-6 [2]; run: 1, 0.00234 µM) [%]	viability (Nalm-6 [2]; run: 1, 0.00702 µM) [%]	viability (Nalm-6 [2]; run: 1, 0.0211 µM) [%]	viability (Nalm-6 [2]; run: 1, 0.0632 µM) [%]	viability (Nalm-6 [2]; run: 1, 0.19 µM) [%]	viability (Nalm-6 [2]; run: 1, 0.569 µM) [%]	viability (Nalm-6 [2]; run: 1, 1.71 µM) [%]	viability (Nalm-6 [2]; run: 1, 5.12 µM) [%]	viability (Nalm-6 [2]; run: 1, 15.4 µM) [%]	viability (Nalm-6 [2]; run: 1, 46.1 µM) [%]	viability (Nalm-6 [2]; run: 2, 0.00078 µM) [%]	viability (Nalm-6 [2]; run: 2, 0.00234 µM) [%]	viability (Nalm-6 [2]; run: 2, 0.00702 µM) [%]	viability (Nalm-6 [2]; run: 2, 0.0211 µM) [%]	viability (Nalm-6 [2]; run: 2, 0.0632 µM) [%]	viability (Nalm-6 [2]; run: 2, 0.19 µM) [%]	viability (Nalm-6 [2]; run: 2, 0.569 µM) [%]	viability (Nalm-6 [2]; run: 2, 1.71 µM) [%]	viability (Nalm-6 [2]; run: 2, 5.12 µM) [%]	viability (Nalm-6 [2]; run: 2, 15.4 µM) [%]	viability (Nalm-6 [2]; run: 2, 46.1 µM) [%]	viability (KB3-1; 0.00078 µM) [%]	viability (KB3-1; 0.00234 µM) [%]	viability (KB3-1; 0.00702 µM) [%]	viability (KB3-1; 0.0211 µM) [%]	viability (KB3-1; 0.0632 µM) [%]	viability (KB3-1; 0.19 µM) [%]	viability (KB3-1; 0.569 µM) [%]	viability (KB3-1; 1.71 µM) [%]	viability (KB3-1; 5.12 µM) [%]	viability (KB3-1; 15.4 µM) [%]	viability (KB3-1; 46.1 µM) [%]
COc1cc2c(N3CCN(C(=O)Nc4ccc(OC(C)C)cc4)CC3)ncnc2cc1OCCCN1CCCCC1 [Tandutinib]	-4.73	-4.68	96.1	106	107	105	112	110	111	102	99.7	71.9	3.18	104	104	109	109	105	111	110	104	104	80.9	3.31	97.3	99.9	98.6	97.5	97.5	101	100	100	97.6	95.5	13.7
CCCc1nc2c(C)cc(-c3nc4ccccc4n3C)cc2n1Cc1ccc(-c2ccccc2C(=O)O)cc1 [Telmisartan]	-4.68	-4.58	100	108	108	109	109	111	114	108	106	93.5	46.5	106	109	102	105	106	106	109	106	104	87.9	44.1	100	99.3	104	102	106	102	104	104	107	100	102
C/C(O)=C(\C#N)C(=O)Nc1ccc(C(F)(F)F)cc1 [Teriflunomide]	-4.83	-4.78	95.2	99.8	99.8	104	103	105	98.4	89.8	61.7	44.4	6.17	96.1	99.5	109	98	102	94.6	101	93.2	79.4	53.6	20.8	98.8	102	97.5	101	100	101	96.7	93	94.9	92.6	17.8
O=C(O)C(=O)c1cn(Cc2ccccc2)c2ccc(-c3ccc(OC(F)(F)F)cc3)cc12 [Tiplasinin]	-4.68	-4.63	110	112	107	110	126	117	113	111	111	94.2	22.8	107	115	113	110	116	106	108	104	107	96.6	28.1	94.9	100	93.7	96.2	92.4	94.1	93.7	97.1	96.4	86.2	61.4
COc1cc2nccc(Oc3ccc(NC(=O)Nc4cc(C)on4)c(Cl)c3)c2cc1OC [Tivozanib]	-4.78	-4.73	104	100	104	118	104	110	108	86	80.6	54.5	11.9	109	108	110	109	107	111	99.7	102	73	77	6.29	105	104	104	107	105	106	110	101	99.8	96.3	26.1
CN1C(=O)C(=C/2N(C(=O)N(C3CC3)C(=O)C2=C1/NC4=CC=C(I)C=C4F)C5=CC=CC(=C5)NC(C)=O)\C [Trametinib]	-4.63	–	105	97.9	98.5	96.5	95.3	98	99.4	85.9	85.9	79.2	1.57	89.1	93.2	87.5	99.7	94.9	98.2	94.5	98.8	90.3	88.6	1.55	95.7	95.4	91.3	98.6	94.1	86.8	87.8	86	88.5	88	37
FC1=CC=C(SC/2=N/N3\C=N/C(=O)/C(=C3/C=C2)C4=C(Cl)C=CC=C4Cl)C(=C1)F [VX-745]	-4.83	–	111	117	110	108	113	107	104	95.1	86.5	82.2	56.2	106	107	107	106	105	99.3	95.4	104	90.1	94.5	65.7	98.1	97.9	95.8	103	103	94.2	101	92.7	92	92.6	68.3
COc1cc2c(Nc3ccc(Br)cc3F)ncnc2cc1OCC1CCN(C)CC1 [Vandetanib]	-4.68	-4.68	109	118	120	117	120	121	124	109	107	90.8	5.18	110	107	107	108	110	105	109	100	93.2	82.9	4.16	100	107	102	101	102	104	102	102	101	96	18.7
C[C@]1(c2nc3c(C(N)=O)cccc3[nH]2)CCCN1 [Veliparib]	-4.78	–	108	114	94.9	106	111	117	109	115	109	92.6	69.4	103	105	101	96.2	103	102	104	96.4	101	95.3	68.2	104	108	106	108	110	110	112	113	100	106	72.7
CCCS(=O)(=O)Nc1ccc(F)c(C(=O)c2c[nH]c3ncc(-c4ccc(Cl)cc4)cc23)c1F [Vemurafenib]	-4.63	-4.63	123	118	113	122	122	122	113	106	105	95.2	2.78	107	104	106	112	104	103	102	101	104	85.2	3.35	99.6	102	103	99.5	103	107	98.8	104	98.7	92.7	52.6
CC[C@@H]1C(=O)N(C)c2cnc(Nc3ccc(C(=O)NC4CCC(N5CCN(CC6CC6)CC5)CC4)cc3OC)nc2N1C(C)C (some centres undefined) [Volasertib]	-7.93	-7.88	97.1	89.6	81.5	19.7	16.7	16.4	17.4	13.1	9.13	4.69	4.98	106	100	88.5	25.4	13	12.9	13.4	6.53	4.28	3.67	3.17	84.7	52.8	25.8	26	31.1	27.4	34.7	48.4	56.7	49.6	4.7
CCOC(=O)N[C@@H]1CC[C@@H]2[C@@H](C1)C[C@H]1C(=O)O[C@H](C)[C@H]1[C@H]2/C=C/c1ccc(-c2cccc(F)c2)cn1 [Vorapaxar]	-4.78	–	116	117	119	121	119	120	125	117	108	87.8	47.6	106	108	111	113	109	111	103	106	107	103	61.3	105	104	102	99.4	102	104	100	103	100	95.4	75.8
CC1(CN2CCC(n3c(=O)[nH]c4ccccc43)CC2)OCc2ccccc2-n2cccc21 (centres undefined) [Zaldaride maleate]	–	-4.58	103	106	102	107	109	110	96.7	115	103	100	4.29	102	107	101	104	93.7	96.6	113	101	98.1	91.4	3.87	97.7	98.1	102	103	99.9	99.3	98.9	102	99.5	90.9	27.1
CCCCn1c(=O)n(Cc2ccccc2F)c(=O)c2nc(Cc3ccc(NC(C)=O)cc3)[nH]c21 [cPEPCK inhibitor]	-5.48	–	124	105	112	115	123	105	106	84.3	32.8	9.4	5.37	112	102	105	115	111	110	106	107	107	106	93.3	97.7	96.8	103	99.7	95.2	96.7	96.8	9.13	4.89	87.5	77.9

Reference: the supplement of paper PMC4996465
